According to PubChem BioAssay AID686970 (National Center for Advancing Translational Sciences (NCATS), 2013):
Hit rate of the full screen: of about 360,000 compounds, about 6,000 (1.7%) were called active. Inconclusive results, whose numbers are uncertain, are shown with a selection of clear calls. Calls come from the whole dose curve; as a rule, active = well fitted cell-killing curve with a large enough effect; inconclusive = small, poorly fitted or top-dose-only effect, or effect the other way; inactive = flat fitted curve, though single readings scatter. Potencies of inconclusive entries are left out as doubtful fits.

assay: qHTS for induction of synthetic lethality in tumor cells producing 2HG: qHTS for the HT-1080-NT fibrosarcoma cell line; conditions: HT-1080-NT fibrosarcoma viability, CellTiter-Glo ATP luminescence, 48 h; activity, negative = less viability: at 46.1 µM (top of the series) unless noted;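 note: NT is the 2HG producing partner of a matched IDH1 knockdown line; nearly all actives have a fitted effect of over 55% in size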;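 for activity, negative = less viability: 0% = DMSO-treated cells and -100% = media-only wells without cells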
Outline: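 A 48-hour cytotoxicity screen used HT-1080-NT cells plated 2 hours before compound delivery. ATP-based CellTiter-Glo luminescence measured viability, normalized to DMSO and no-cell controls.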
Potency is the fitted concentration of half-maximal effect; tags give direction and shape of the fitted curve.

Row | Compound | activity, negative = less viability | Potency
1 | Cn1c(SCc2ccccn2)nc2c1c(=O)[nH]c(=O)n2C | inactive: 17.4% | –
2 | Cc1c(Cc2ccccc2)sc(NC(=O)C(C)(C)C)c1C(N)=O | inactive: -8.63% | –
3 | O=[N+]([O-])c1ccc(S(=O)(=O)c2ccccc2)nc1 | – | active: 5.8 µM
4 | CCOc1ccc2[nH]c(=O)c(CN(CCN3CCCC3)C(=S)Nc3ccccc3OCC)cc2c1 | – | inconclusive [cytotoxic, partial curve]
5 | COc1ccc(NC(=O)CCC(=O)Nc2cc(OC)c(NC(=O)c3ccco3)cc2OC)c(OC)c1 | inconclusive: -11.5% [cytotoxic] | –
6 | CC(NC(=O)C(=O)N1CCCCC1)C(c1cccs1)N1CCN(c2ccccc2)CC1 (centres undefined) | inactive: 0.863% | –
7 | Cc1ccc(NC(=O)c2nc[nH]c2C(=O)N[C@@H](CCCCNC(=O)OC(C)(C)C)C(=O)OC(C)(C)C)cc1 | – | inconclusive [cytotoxic, single point]
8 | CC(=O)Nc1nc(C)c(-c2csc(Nc3cccc([N+](=O)[O-])c3)n2)s1 | – | inconclusive [cytotoxic, single point]
9 | Cc1cccc(N2CCN(C(=O)c3cn(C)c(=O)c4c3c3ccccc3n4C)CC2)c1C | – | inconclusive [cytotoxic, single point]
10 | CC(C)(C)c1ccc(/C=N/OCC(=O)NCc2ccc(F)cc2)cc1 | – | inconclusive [cytotoxic, single point]
11 | Nc1ccc(SCC(=O)Nc2cccc([N+](=O)[O-])c2)cc1 | inactive: -3.23% | –
12 | COc1cc2c(cc1OC)C(c1ccccc1)N(C(=O)c1ccccc1F)CC2 (centres undefined) | inactive: -15.5% | –
13 | O=C(c1[nH]nc2c1CCc1ccccc1-2)N1CCN(Cc2ccc3c(c2)OCO3)CC1 | – | inconclusive [cytotoxic, full curve]
14 | O=C(Nc1ccc2c(c1)OCCO2)c1coc2ccccc2c1=O | – | inconclusive [cytotoxic, partial curve]
15 | CC(C)OC(=O)C(C(=O)C(F)(F)F)c1cc(NS(=O)(=O)c2ccc3ccccc3c2)c2ccccc2c1O (centres undefined) | – | active: 8.2 µM
16 | COc1ccc(C(=O)CC(=O)c2ccccc2O)cc1 | – | inconclusive [cytotoxic, partial curve]
17 | COC(=O)C(NC(C)=O)(Nc1ccc(Br)cc1)C(=O)OC | – | inconclusive [cytotoxic, partial curve]
18 | CCOc1ccc(C(=O)C(CCC(CN(C)C)C(=O)c2ccc(OCC)cc2)CN(C)C)cc1 (centres undefined) | – | active: 5.17 µM
19 | Cc1ccc(OCC(=O)NCCNC(=O)c2cnccn2)cc1 | inactive: -2.44% | –
20 | COc1cccc(C(=O)Oc2cc3c4c(c2)C(C)=CC(C)(C)N4C(=O)C3=O)c1 | – | active: 7.08 µM
21 | CC(C)(C)c1ccc(S(=O)(=O)N2CCN(c3ccccn3)CC2)cc1 | inactive: 24.5% | –
22 | Cc1ccc(C2C3C(=O)N(c4ccccc4)C(=O)C3N3CCCN23)cc1 (centres undefined) | inconclusive: 36.8% | –
23 | CCCCOCCCNC(=O)C[C@@H]1C[C@@]2(C(=O)OC)CCCCC=C2N(CCC2=CCCCC2)C1=O | – | inconclusive [cytotoxic, single point]
24 | Cc1ccc(NS(=O)(=O)c2ccc(NC(=O)C(C)Sc3ccc(Cl)cc3)cc2)c(C)c1 (centres undefined) | – | inconclusive [cytotoxic, single point]
25 | O=C(c1ccc(CNS(=O)(=O)c2ccc(F)cc2)cc1)N1CCCCCC1 | inactive: 3.06% | –

Row | Compound | activity, negative = less viability | Potency
26 | Cc1ccc(OCCN2CCC2(C)C(=O)NCc2ccc(C(F)(F)F)cc2)cc1 (centres undefined) | – | inconclusive [cytotoxic, single point]
27 | Cc1cc(-c2cccs2)c2c(N)c(C(=O)c3ccc4c(c3)OCO4)sc2n1 | inactive: 6.31% | –
28 | Cc1ccc(/C=C/C(=O)c2ccc([N+](=O)[O-])o2)cc1 | – | active: 11.6 µM
29 | N/C(=N\OC(=O)c1cc(Cl)ccc1Cl)c1cccnc1 | – | inconclusive [cytotoxic, single point]
30 | CCc1c(C)nc2c(-c3ccccc3)c[nH]n2c1=O | inactive: -29.8% | –
31 | CCCCCCCC(=O)Nc1cc(C(=O)NCc2ccc(C)cc2)ccc1N1CCC2(CC1)CC(c1ccccc1)=NO2 | inactive: 14.1% | –
32 | CCOc1ccc2ccccc2c1C(=O)NCC(c1ccc(N(C)C)cc1)N(C)C (centres undefined) | inactive: -21.2% | –
33 | CC[C@]12C(=O)N(C)C[C@H]([C@@H]3C(=O)N(C)C(=O)[C@@H]31)N2C(=O)c1ccc(Br)cc1 | inactive: 3.83% | –
34 | CCC(=O)NC(c1ccc(Cl)cc1Cl)c1ccc2cccnc2c1O (centres undefined) | – | active: 14.6 µM
35 | CCCc1cc(C(=O)N/N=C/c2cccn2C)cs1 | inactive: 4.3% | –
36 | O=C(COC(=O)C12CC3CC(CC(Br)(C3)C1)C2)Nc1ccc2[nH]c(=O)[nH]c2c1 | inactive: -2.12% | –
37 | Cc1cccc(NC(=O)/C=C/c2ccc([N+](=O)[O-])s2)c1 | – | active: 2.91 µM
38 | N=C1SCC(=O)N1c1ncc(Cc2ccc(F)cc2)s1 | inconclusive: -24.6% [cytotoxic] | –
39 | CC(Oc1ccc(Cl)cc1Cl)C(=O)Nc1ccc(S(=O)(=O)Nc2cnc3ccccc3n2)cc1 (centres undefined) | inactive: -29.1% | –
40 | COc1cc(CNCC(O)c2ccccc2)ccc1OCc1ccc(Cl)nc1 (centres undefined) | – | inconclusive [cytotoxic, single point]
41 | O=C(/C=C/c1ccccc1)c1ccc2c3c(cccc13)CC2 | – | inconclusive [cytotoxic, single point]
42 | CCOC(=O)C(=O)N(Nc1ccccc1C)c1ccccc1C | – | inconclusive [rising, single point]
43 | CCCCN(C(=O)C(C)Oc1cccc(Cl)c1)c1c(N)n(CCC)c(=O)[nH]c1=O (centres undefined) | inactive: -0.275% | –
44 | COc1ccc(NC(=O)c2cccs2)cn1 | – | inconclusive [rising, partial curve]
45 | COc1cccc(/C=N/NC(=O)c2cccc(N3CCCC3=O)c2)c1 | inactive: 17.8% | –
46 | COc1ccc(/C=C/C(=O)NC(=S)NNC(=O)c2cc(OC)c(OC)c(OC)c2)cc1 | inactive: -17.5% | –
47 | NC(=O)c1ccccc1NC(=O)CSc1nc2c(c(=O)[nH]1)CCCC2 | – | active: 11.6 µM
48 | Cc1ccc(Cc2c[nH]c(=S)s2)cc1 | inactive: -17.4% | –
49 | O=C(CN1CCCC1c1cccs1)Nc1cccc(S(=O)(=O)N2CCCC2)c1 (centres undefined) | inactive: -2.71% [at 9.24 µM] | –
